PubChem BioAssay AID588855 (National Center for Advancing Translational Sciences (NCATS), 2011)
The campaign covered roughly 410,000 compounds. About 5,000 (1.2%) were called active. The shares of active, inactive and inconclusive entries below differ from those in the screen. The call rests on the fitted dose curve; in most records, active means well fitted inhibition curve with a large enough effect; inconclusive means small, poorly fitted or top-dose-only effect; inactive means no such curve, though single readings can be large or run the other way. Potencies of inconclusive entries are doubtful fits and often do not repeat.

Test: qHTS for Inhibitors of TGF-b; further: nearly all actives have a fitted effect of over 65% in size
Details: HepG2 CAGA-GFP TGF-b/SMAD3 reporter, GFP fluorescence, 18 h, TGF-beta stimulated, 500 pg/mL final; series mostly up to 46.1 µM
Method in brief: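 GFP signal (ex488/em500-530) from TGF-beta-stimulated HEPG2 CAGA-GFP cells, 500 pg/mL final, 18 h at 37 degrees C in DMEM plus 1% FBS, normalized to unstimulated and DMSO-stimulated controls.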
Potency means the concentration at half of the fitted maximal effect; tags describe the fitted curve by direction and shape.

SMILES	Potency
Cc1cccc(CN(CC(=O)N/N=C/c2cccs2)S(=O)(=O)c2ccc(Cl)cc2)c1	inconclusive: 20 µM [inhibitor, single point]
O=C(CCC1CCCC1)N1CCN(S(=O)(=O)c2ccc(Br)cc2)CC1	inconclusive: 15.8 µM [inhibitor, single point]
Cc1nc2cccnc2n1C1CCN(S(=O)(=O)c2ccc(C(C)C)cc2)CC1	inconclusive: 2.51 µM [inhibitor, partial curve]
CCNC(=O)C1(C)CCN(Cc2ccc(-c3ccccc3)cc2)C1 (centres undefined)	inactive
N#CCC(=O)N/N=C/c1cn(Cc2cccc3ccccc23)c2ccccc12	inconclusive: 3.98 µM [inhibitor, full curve]
NS(=O)(=O)c1ccc(NC(=O)CN2CCN(S(=O)(=O)/C=C/c3ccccc3)CC2)cc1	inactive
Cc1ccc(C)c(N(C)C(=O)COc2cc(=O)n(C)c3ccccc23)c1	inconclusive: 35.5 µM [inhibitor, single point]
Fc1cccc(CCN2C(=S)NC[C@@H]2CC2CCCCC2)c1	active: 14.1 µM
Cc1cccc(-n2ncc(C(=O)NCc3ccco3)c2C2CCN(C(=O)OC(C)(C)C)CC2)c1	inconclusive: 28.2 µM [inhibitor, partial curve, poor fit]
NS(=O)(=O)c1cccnc1Nc1cccc(Cl)c1	inconclusive: 4.47 µM [inhibitor, single point]
CCCCCCC(=O)N1CCC(c2nc3c(nnn3Cc3ccccc3Cl)c(=O)[nH]2)CC1	inconclusive: 35.5 µM [inhibitor, single point]
CC(C)C(=O)NNC(=O)c1ccccn1	inactive
COCCN(C(=O)CC(C)(C)C)c1nnc(-c2cccnc2)s1	inconclusive: 31.6 µM [inhibitor, single point]
O=C(NCCCN1CCN(Cc2ccccc2)CC1)C1CCN(S(=O)(=O)N2CCCC2)CC1	inconclusive: 1.12 µM [inhibitor, full curve, poor fit]
CC1(C)CC(N2CCCC2)=CC(=[N+]2CCCC2)C1	inconclusive: 12.6 µM [inhibitor, partial curve]
CCOC(=O)c1cccc(NC(=O)N2CC(CC)Oc3ccccc32)c1 (centres undefined)	inconclusive: 0.562 µM [inhibitor, full curve, poor fit]
COc1ccc(NC(=O)c2sc3nc4c(cc3c2N)CCCCCC4)cc1Cl	inactive
CCN1CCN(C(=O)c2ccc3c(c2)N(Cc2ccccc2F)C(=O)c2ccccc2S3(=O)=O)CC1	inactive
CCSc1ccc(-c2cc(NC=O)c3ncc(-c4cccc(C(=O)NCCN(C)C)c4)n3c2)cc1	inconclusive: 25.1 µM [inhibitor, single point]
Cc1cc(Oc2cc(N)cc([N+](=O)[O-])c2)ccc1Cl	inconclusive: 35.5 µM [inhibitor, single point]
CN(C)c1nccc(N(Cc2ccccc2)Cc2ccccc2)c1C#N	inconclusive: 35.5 µM [inhibitor, single point]
Oc1c(N=NC(=S)Nc2ccccc2F)c2ccccc2n1Cc1ccccc1Cl	inactive
CCCn1c(N)c(N(CCOC)C(=O)c2ccc([N+](=O)[O-])cc2Cl)c(=O)[nH]c1=O	inactive

SMILES	Potency
c1cncc(-c2nnc(-c3cccnc3)nn2)c1	inconclusive: 22.4 µM [inhibitor, single point]
CCCCN(CC)CCNC(=O)c1cc2c(=O)n(C)c3ccccc3c2s1	inconclusive: 35.5 µM [inhibitor, single point]
Cc1ccc2c(c1)C(O)(CC(=O)c1cccc(-n3cccc3)c1)C(=O)N2 (centres undefined)	inconclusive: 35.5 µM [inhibitor, single point]
CC(C)CCOP(=O)(c1ccc(N(C)C)cc1)C(Nc1ccccc1)c1ccc(N(C)C)cc1 (centres undefined)	inconclusive: 17.8 µM [inhibitor, single point]
COc1ccc(COc2ccc3ccc(=O)oc3c2)cc1	inactive
CCOc1ccc2[nH]c(=O)c(CN(Cc3cccs3)Cc3nnnn3C(C)(C)C)cc2c1	inactive
Cc1ccc([N+](=O)[O-])cc1N(CC(=O)NC1CCCC1)S(C)(=O)=O	inactive
O=C(c1ccccc1Cl)N1CCN(CCc2ccccn2)CC1	inactive
O=C(/C=C/c1ccco1)NC(=S)Nc1cccc(-c2nc3ccccc3o2)c1	inconclusive: 35.5 µM [inhibitor, single point]
O=C(c1cn[nH]c1)N1CCc2c([nH]c3ccccc23)C1c1c(F)cccc1Cl (centres undefined)	inconclusive: 35.5 µM [inhibitor, single point]
Cc1ccc(C)c(Cn2c(=O)n(Cc3ccc(C(=O)NC4CCN(Cc5ccccc5)CC4)cc3)c(=O)c3ccccc32)c1	inactive
Cc1ccc(-c2nnc(NC(=O)c3ccc4c(c3)OCCO4)o2)c(C)c1	inactive
Cc1ccc2c(c1)c1c(n2CC(O)Cn2c(C)nc3ccccc32)CCCC1 (centres undefined)	inconclusive: 22.4 µM [inhibitor, single point]
CC(C)(C)c1cc(C(=O)NCc2ccco2)ccn1	inactive
CN(C)CCCNc1ncnc2c1cnn2-c1ccccc1	inactive
CN(C)S(=O)(=O)c1ccc2c(c1)N(CC(=O)NCc1cccc(Br)c1)C(=O)CS2	inconclusive: 35.5 µM [inhibitor, single point]
COc1cc(NC(=O)COc2ccccc2)c(OC)cc1NC(C)=O	inactive
COc1ccc(C(=O)C2CCCN(Cc3ccc(C#CCCO)cc3)C2)cc1F (centres undefined)	inconclusive: 0.355 µM [inhibitor, full curve, poor fit]
CC(=O)c1cccc(NC(=O)CSc2nnc3ccc(-c4ccc(C)cc4)nn23)c1	inconclusive: 5.01 µM [inhibitor, full curve]
Cc1ccc2nc(SCC(=O)N3CCOCC3)[nH]c2c1	inconclusive: 35.5 µM [inhibitor, single point]
Nc1ccncc1N	inactive
Cc1ccccc1-c1nc(C(N)=O)c2c(n1)n(-c1ccc3c(c1)OCO3)c(=O)n2C	inconclusive: 35.5 µM [inhibitor, single point]
CN=c1scc(-c2ccccc2F)n1/N=C/c1ccc(O)c(O)c1O	inconclusive: 20 µM [inhibitor, single point]

SMILES	Potency
O=C(c1ccco1)N1CCN(c2c(-c3ccccc3)c3cc(Cl)ccc3[nH]c2=O)CC1	inconclusive: 11.2 µM [inhibitor, partial curve, poor fit]
CCOC(=O)c1c(C)oc2ncnc(NCCCN3CCN(c4cc(C)ccc4C)CC3)c12	inconclusive: 3.55 µM [inhibitor, partial curve, poor fit]
C=CCn1c(=O)/c(=C/c2ccc(Cl)cc2)s/c1=C(\C#N)c1nnc2n1CCCCC2	inactive
NC(=O)c1ccsc1NC(=O)COC(=O)c1ccc([N+](=O)[O-])o1	inactive
COc1ccc(C2CC(C)(c3ccc(OC)cc3)Nc3ccccc3N2)cc1 (centres undefined)	inconclusive: 12.6 µM [inhibitor, single point]
CCOC(=O)c1ccc(NC(=O)C2CCN(C(=O)N3CC(C)Oc4ccc(C)cc43)CC2)cc1 (centres undefined)	inconclusive: 25.1 µM [inhibitor, single point]
C/C(=N\NC(=S)NCCc1ccccc1)c1cccs1	inconclusive: 35.5 µM [inhibitor, single point]
C=C(C)c1cccc(C(C)(C)NC(=O)Nc2ccc(C)cn2)c1	inconclusive: 12.6 µM [inhibitor, single point]
O=C(NCCC1=CCCCC1)C1CCN(S(=O)(=O)c2cccc3cccnc23)CC1	inconclusive: 3.98 µM [inhibitor, single point]
C[C@H](CO)N1C[C@H](C)[C@@H](CN(C)C(=O)Nc2ccc(C(F)(F)F)cc2)Oc2c(NS(=O)(=O)c3ccccc3)cccc2C1=O	inactive
O=C(CCN1CCN(Cc2ccccc2)CC1)Nc1cccc(Br)c1	inactive
COc1ccc(S(=O)(=O)n2nc(C)c(S(=O)(=O)N3CCCCCC3)c2C)cc1OC	inactive
Clc1ncc(CSc2ccccc2)s1	inactive
Cc1ccc(C2C3=C(CC(C)(C)CC3=O)Nc3onc(C)c32)cc1 (centres undefined)	inconclusive: 22.4 µM [inhibitor, single point]
CC(=O)Nc1ccc(-c2ccnc3c2CC(C(=O)Nc2ccc4c(c2)OCO4)O3)cc1 (centres undefined)	inactive
Cc1ccc(N2CCN(C(=O)NCc3noc4ccccc34)CC2C)cc1 (centres undefined)	inconclusive: 14.1 µM [inhibitor, single point]
Cc1cccc(C(=O)Nc2ccc(-c3nc4cc(C(C)C)ccc4o3)cc2)c1	inconclusive: 35.5 µM [inhibitor, single point]
Cc1cc2nc(-c3ccc(C#N)cc3)c(Cc3cccc(F)c3)n2c(C)c1Br	inconclusive: 8.91 µM [inhibitor, partial curve]
CC(C)n1cc(CN2CCC(Oc3ccc(C(=O)N4CCCC4)cc3)CC2)cn1	inactive
COc1ccc(C(=O)Nc2ccc(NC(=O)c3cccc(OC)c3)cn2)cc1	inconclusive: 35.5 µM [inhibitor, single point]
Cc1ccccc1C(=O)N(C)[C@H]1C[C@H]2c3[nH]c4ccccc4c3CCN2C[C@H]1[C@H](C)O	inconclusive: 8.91 µM [inhibitor, partial curve, poor fit]
CCOc1ccc(N=C(NN)c2ccc3ccccc3n2)cc1	inconclusive: 35.5 µM [inhibitor, single point]
CSc1ccc(NC(=O)C2(C)CCN2C(=O)C2(c3ccccc3)CC2)cc1 (centres undefined)	inconclusive: 17.8 µM [inhibitor, single point]
